Assay results from the supplement of paper PMC8728848.
The other results are listed elsewhere or left out.

What was measured:
Assay in all cases: glycan array binding signal (z-score within array); higher = stronger binding
Settings in all cases: glycan notation: IUPAC condensed, linker removed
[1] = biological target: Neu5Ac(a2-6)GalNAc(b1-4)GlcNAc6S
In short: (§1)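 Columns mapping to the same glycan were averaged after glycan names were converted to IUPAC-condensed notation. The data come from 3228 arrays in the Consortium for Functional Glycomics database, limited to those with an available protein sequence. Binding is reported as a within-array Z-score averaged across arrays of one protein sequence and across linkers.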

[2] = biological target: Neu5Ac(a2-6)GlcNAc(b1-4)GlcNAc
In short: as §1

[3] = biological target: Neu5Ac(a2-6)GlcNAc(b1-4)GlcNAc(b1-4)GlcNAc
In short: as §1

[4] = biological target: Neu5Ac(a2-8)Neu5Ac
In short: as §1

[5] = biological target: Neu5Ac(a2-8)Neu5Ac(a2-3)Gal(b1-3)GalNAc(b1-4)[Neu5Ac(a2-8)Neu5Ac(a2-3)]Gal(b1-4)Glc
In short: as §1

[6] = biological target: Neu5Ac(a2-8)Neu5Ac(a2-3)Gal(b1-4)Glc
In short: as §1

[7] = biological target: Neu5Ac(a2-8)Neu5Ac(a2-3)[Gal(b1-3)GalNAc(b1-4)]Gal(b1-4)Glc
In short: as §1

[8] = biological target: Neu5Ac(a2-8)Neu5Ac(a2-3)[GalNAc(b1-4)]Gal(b1-4)Glc
In short: as §1

[9] = biological target: Neu5Ac(a2-8)Neu5Ac(a2-8)Neu5Ac
In short: as §1

[10] = biological target: Neu5Ac(a2-8)Neu5Ac(a2-8)Neu5Ac(a2-3)Gal(b1-4)Glc
In short: as §1

[11] = biological target: Neu5Ac(a2-8)Neu5Ac(a2-8)Neu5Ac(a2-3)[GalNAc(b1-4)]Gal(b1-4)Glc
In short: as §1

[12] = biological target: Neu5Ac(a2-8)Neu5Ac(a2-8)Neu5Ac(a2-8)Neu5Ac(a2-3)[GalNAc(b1-4)]Gal(b1-4)Glc
In short: as §1

[13] = biological target: Neu5Ac(b2-6)Gal(b1-4)GlcNAc
In short: as §1

[14] = biological target: Neu5Ac(b2-6)GalNAc
In short: as §1

[15] = biological target: Neu5Ac9Ac(a2-3)Gal(b1-3)GlcNAc
In short: as §1

[16] = biological target: Neu5Ac9Ac(a2-3)Gal(b1-4)GlcNAc
In short: as §1

[17] = biological target: Neu5Ac9Ac(a2-6)Gal(b1-4)GlcNAc
In short: as §1

[18] = biological target: Neu5Gc(a2-3)Gal(b1-3)GlcNAc
In short: as §1

[19] = biological target: Neu5Gc(a2-3)Gal(b1-3)[Fuc(a1-4)]GlcNAc
In short: as §1

[20] = biological target: Neu5Gc(a2-3)Gal(b1-4)Glc
In short: as §1

[21] = biological target: Neu5Gc(a2-3)Gal(b1-4)GlcNAc
In short: as §1

[22] = biological target: Neu5Gc(a2-3)Gal(b1-4)[Fuc(a1-3)]GlcNAc
In short: as §1

[23] = biological target: Neu5Gc(a2-6)Gal(b1-4)GlcNAc
In short: as §1

[24] = biological target: Neu5Gc(a2-6)GalNAc
In short: as §1

[25] = biological target: Neu5Gc(b2-6)Gal(b1-4)GlcNAc
In short: as §1

B1: Morniga (Morus nigra) (protein)
chain: MAGTSTNTQTTGTSQTVEVGLWGGPGGNAWDDGSYTGIREINLSHGDAIGAFSVIYDLNGQPFTGPTHPGNEPSFKTVKITLDFPNEFLVSVSGYTGVLPRLATGKDVIRSLTFKTNKKTYGPYGKEEGTPFSLPIENGLIVGFKGRSGFVVDAIGVHLS
glycan array binding signal (z-score) [1]: -0.328
glycan array binding signal (z-score) [2]: -0.339
glycan array binding signal (z-score) [3]: -0.331
glycan array binding signal (z-score) [4]: -0.332
glycan array binding signal (z-score) [5]: -0.328
glycan array binding signal (z-score) [6]: -0.334
glycan array binding signal (z-score) [7]: -0.327
glycan array binding signal (z-score) [8]: -0.349
glycan array binding signal (z-score) [9]: -0.343
glycan array binding signal (z-score) [10]: -0.334
glycan array binding signal (z-score) [11]: -0.328
glycan array binding signal (z-score) [12]: -0.333
glycan array binding signal (z-score) [13]: -0.325
glycan array binding signal (z-score) [14]: -0.332
glycan array binding signal (z-score) [15]: -0.338
glycan array binding signal (z-score) [16]: -0.334
glycan array binding signal (z-score) [17]: -0.326
glycan array binding signal (z-score) [18]: -0.34
glycan array binding signal (z-score) [19]: -0.343
glycan array binding signal (z-score) [20]: -0.314
glycan array binding signal (z-score) [21]: -0.341
glycan array binding signal (z-score) [22]: -0.327
glycan array binding signal (z-score) [23]: -0.342
glycan array binding signal (z-score) [24]: -0.338
glycan array binding signal (z-score) [25]: -0.327
